The data scatter; read single values as rough.
Assay: amyloid nucleation score relative to library mode (yeast Sup35 reporter selection) (log enrichment difference); higher = more amyloid nucleation; sequences are the first 22 residues of the Bri2 peptide extended by up to 12 random residues
Settings: random library (experiment): 1;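 active = nucleation score significantly above 0 at FDR 0.05; inactive = not significantly above 0 or absent from output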
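Note: [psi-pin-] Saccharomyces cerevisiae expressing SupN fusions, induced by 100 µM Cu2SO4, selected 7 d at 30 °C without adenine and uracil, scored by deep sequencing of output versus input.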

Sequence	amyloid nucleation score
EASNCFAIRHFENKFAVETLICVYCHALQFCSVK	inactive
EASNCFAIRHFENKFAVETLICVYCVIRFRSNGG	inactive
EASNCFAIRHFENKFAVETLICVYDLMTE	inactive
EASNCFAIRHFENKFAVETLICVYDNKPKRSVWV	inactive
EASNCFAIRHFENKFAVETLICVYDYGSGKADVL	0.627
EASNCFAIRHFENKFAVETLICVYGDLFPVSLCR	3.88
EASNCFAIRHFENKFAVETLICVYGRFLRGSVPA	inactive
EASNCFAIRHFENKFAVETLICVYGYGLRLQWTC	inactive
EASNCFAIRHFENKFAVETLICVYHYFLNTHSRR	inactive
EASNCFAIRHFENKFAVETLICVYKHYFGRARMR	inactive
EASNCFAIRHFENKFAVETLICVYLA	inactive
EASNCFAIRHFENKFAVETLICVYLPCGTFVVDG	6.98
EASNCFAIRHFENKFAVETLICVYLPSGDSRPVA	6.82
EASNCFAIRHFENKFAVETLICVYMDHC	7.51
EASNCFAIRHFENKFAVETLICVYMMPVNRICRR	inactive
EASNCFAIRHFENKFAVETLICVYRGALKRILGM	inactive
EASNCFAIRHFENKFAVETLICVYRGVEVRWLLW	inactive
EASNCFAIRHFENKFAVETLICVYRKYMFVPHGA	inactive
EASNCFAIRHFENKFAVETLICVYRRCRLRVGW	4.8
EASNCFAIRHFENKFAVETLICVYRSSCSNNEWM	inactive
EASNCFAIRHFENKFAVETLICVYRVHC	inactive
EASNCFAIRHFENKFAVETLICVYSGD	5.1
EASNCFAIRHFENKFAVETLICVYSRRAWSERPR	inactive
EASNCFAIRHFENKFAVETLICVYTDSRPVHAMP	4.41
EASNCFAIRHFENKFAVETLICVYVAK	5.87
EASNCFAIRHFENKFAVETLICVYVGA	inactive
EASNCFAIRHFENKFAVETLICVYVNLMDWYDFS	inactive

Sequence	amyloid nucleation score
EASNCFAIRHFENKFAVETLICVYY	inactive
EASNCFAIRHFENKFAVETLICWA	inactive
EASNCFAIRHFENKFAVETLICWACRLVGEGSFE	inactive
EASNCFAIRHFENKFAVETLICWAEGFECSQRAA	-0.309
EASNCFAIRHFENKFAVETLICWAENTCVGLACR	4.92
EASNCFAIRHFENKFAVETLICWAGMLQGDLRCY	inactive
EASNCFAIRHFENKFAVETLICWAHAAVVTKLWL	inactive
EASNCFAIRHFENKFAVETLICWAL	5.59
EASNCFAIRHFENKFAVETLICWAMASAQGARTG	3.52
EASNCFAIRHFENKFAVETLICWAPRGMTGIFDC	4.41
EASNCFAIRHFENKFAVETLICWASGAVGLQAGR	2.86
EASNCFAIRHFENKFAVETLICWASSDEFAARSR	2.91
EASNCFAIRHFENKFAVETLICWASTECLLINAA	inactive
EASNCFAIRHFENKFAVETLICWAWVDLKRVTWV	-0.0755
EASNCFAIRHFENKFAVETLICWAWWSLGKIV	-0.0755
EASNCFAIRHFENKFAVETLICWCASIFGPTKAP	4.28
EASNCFAIRHFENKFAVETLICWCEVGRQHMDAG	-0.487
EASNCFAIRHFENKFAVETLICWCGCRKGGFRDS	4.66
EASNCFAIRHFENKFAVETLICWCGVQGRVARFG	3.39
EASNCFAIRHFENKFAVETLICWCHKC	inactive
EASNCFAIRHFENKFAVETLICWCHVVL	inactive
EASNCFAIRHFENKFAVETLICWCLLVTVARLSA	0.00985
EASNCFAIRHFENKFAVETLICWCNRTDPLRSIG	inactive
EASNCFAIRHFENKFAVETLICWCR	inactive
EASNCFAIRHFENKFAVETLICWCSLLLAVQAVA	inactive
EASNCFAIRHFENKFAVETLICWCSVGMGLGEY	inactive
EASNCFAIRHFENKFAVETLICWCVRSPRTPCDG	inactive

Same assay, conditions: random library (experiment): 2

Sequence	amyloid nucleation score
EASNCFAIRHFENKFAVETLICVYCMGVNRYTSV	inactive
EASNCFAIRHFENKFAVETLICVYEAYRTYNHGW	4.09
EASNCFAIRHFENKFAVETLICVYG	inactive
EASNCFAIRHFENKFAVETLICVYIFDHLYHDQG	2.85
EASNCFAIRHFENKFAVETLICVYIVHGVRDYVS	inactive
EASNCFAIRHFENKFAVETLICVYKVVWWVPKSW	inactive
EASNCFAIRHFENKFAVETLICVYLFKSLATGFA	0.68
EASNCFAIRHFENKFAVETLICVYLFRDTDEPWL	6.13
EASNCFAIRHFENKFAVETLICVYNVQCC	inactive
EASNCFAIRHFENKFAVETLICVYNVYTNLYRIK	1.82
EASNCFAIRHFENKFAVETLICVYPHCDLTAMFA	6.48
EASNCFAIRHFENKFAVETLICVYR	0.0566
EASNCFAIRHFENKFAVETLICVYSFAIK	inactive
EASNCFAIRHFENKFAVETLICVYSSFN	4.28
EASNCFAIRHFENKFAVETLICVYSYCWRRLIAN	inactive
EASNCFAIRHFENKFAVETLICVYTFIVVMVGRC	inactive
EASNCFAIRHFENKFAVETLICVYTIRIGVHGSN	3.56
EASNCFAIRHFENKFAVETLICVYV	inactive

Sequence	amyloid nucleation score
EASNCFAIRHFENKFAVETLICVYWPENLHYLVC	inactive
EASNCFAIRHFENKFAVETLICVYWTSSRSYVQS	inactive
EASNCFAIRHFENKFAVETLICVYYASQMRKYFM	inactive
EASNCFAIRHFENKFAVETLICVYYGYVALLSDK	inactive
EASNCFAIRHFENKFAVETLICVYYKLDKRNVSV	inactive
EASNCFAIRHFENKFAVETLICWACRA	4.95
EASNCFAIRHFENKFAVETLICWADIHSDTYPSR	6.68
EASNCFAIRHFENKFAVETLICWAGF	4.75
EASNCFAIRHFENKFAVETLICWALRVSFVIQLD	inactive
EASNCFAIRHFENKFAVETLICWANCEDYSVVCG	3.08
EASNCFAIRHFENKFAVETLICWATNDPMLVNKV	0.261
EASNCFAIRHFENKFAVETLICWCCCFLSAFVFL	inactive
EASNCFAIRHFENKFAVETLICWCHISWKLCNRA	inactive
EASNCFAIRHFENKFAVETLICWCMLEMPHIMVR	inactive
EASNCFAIRHFENKFAVETLICWCPITLSLLLSS	1.2
EASNCFAIRHFENKFAVETLICWCRDDVLRVDYK	inactive
EASNCFAIRHFENKFAVETLICWCSIILRTCGTS	inactive
EASNCFAIRHFENKFAVETLICWCVIRTSYGA	inactive

Same assay, conditions: random library (experiment): 3

Sequence	amyloid nucleation score
EASNCFAIRHFENKFAVETLICVYGCHRAVHNAM	5.38
EASNCFAIRHFENKFAVETLICVYGTGIGSMWEA	0.104
EASNCFAIRHFENKFAVETLICVYKMSFSNWYKV	0.00905
EASNCFAIRHFENKFAVETLICVYKWGSRGAMYW	inactive
EASNCFAIRHFENKFAVETLICVYLRGAWLARPD	inactive
EASNCFAIRHFENKFAVETLICVYNAAGRLCAFR	0.693
EASNCFAIRHFENKFAVETLICVYRISW	4.11
EASNCFAIRHFENKFAVETLICVYSVFLFYSFLE	0.551
EASNCFAIRHFENKFAVETLICVYTALVRDADG	0.34
EASNCFAIRHFENKFAVETLICVYTE	inactive
EASNCFAIRHFENKFAVETLICVYVQWGPSGGSG	inactive
EASNCFAIRHFENKFAVETLICVYWHIFKVPFRH	inactive
EASNCFAIRHFENKFAVETLICWAALRHCADTPK	inactive
EASNCFAIRHFENKFAVETLICWAMGCPFHVHRG	7.35
EASNCFAIRHFENKFAVETLICWAMLTLDRKLMV	inactive
EASNCFAIRHFENKFAVETLICWAQTW	4.98
EASNCFAIRHFENKFAVETLICWARLGSA	inactive
EASNCFAIRHFENKFAVETLICWARRGLVPARVW	inactive
EASNCFAIRHFENKFAVETLICWASQPSSSRQWT	inactive
EASNCFAIRHFENKFAVETLICWAWF	8.34
EASNCFAIRHFENKFAVETLICWCAFMGQKPPCG	inactive
EASNCFAIRHFENKFAVETLICWCASCDDLWVKG	6.49
EASNCFAIRHFENKFAVETLICWCDLTRERWVPD	inactive
EASNCFAIRHFENKFAVETLICWCESGGLGGS	inactive
EASNCFAIRHFENKFAVETLICWCGLYALSDGNW	inactive
EASNCFAIRHFENKFAVETLICWCLCRFHARVHL	inactive
EASNCFAIRHFENKFAVETLICWCMLVLWGTLRN	inactive
EASNCFAIRHFENKFAVETLICWCQQRTLSLSSS	inactive
EASNCFAIRHFENKFAVETLICWCTAYRIGLGSS	inactive
EASNCFAIRHFENKFAVETLICWCVVQDELCINR	5.35
